Assay results reported in patent publication US20020106724A1 (RIKEN, published 2002).

Target: T1, SYNCRIP (Synaptotagmin-binding, cytoplasmic RNA-interacting protein), full-length (mouse, UniProt Q7TMK9 1-549)
T1 construct: Tested as crude lysates, not purified; also called 66 kDa protein; wild type
T1 sequence: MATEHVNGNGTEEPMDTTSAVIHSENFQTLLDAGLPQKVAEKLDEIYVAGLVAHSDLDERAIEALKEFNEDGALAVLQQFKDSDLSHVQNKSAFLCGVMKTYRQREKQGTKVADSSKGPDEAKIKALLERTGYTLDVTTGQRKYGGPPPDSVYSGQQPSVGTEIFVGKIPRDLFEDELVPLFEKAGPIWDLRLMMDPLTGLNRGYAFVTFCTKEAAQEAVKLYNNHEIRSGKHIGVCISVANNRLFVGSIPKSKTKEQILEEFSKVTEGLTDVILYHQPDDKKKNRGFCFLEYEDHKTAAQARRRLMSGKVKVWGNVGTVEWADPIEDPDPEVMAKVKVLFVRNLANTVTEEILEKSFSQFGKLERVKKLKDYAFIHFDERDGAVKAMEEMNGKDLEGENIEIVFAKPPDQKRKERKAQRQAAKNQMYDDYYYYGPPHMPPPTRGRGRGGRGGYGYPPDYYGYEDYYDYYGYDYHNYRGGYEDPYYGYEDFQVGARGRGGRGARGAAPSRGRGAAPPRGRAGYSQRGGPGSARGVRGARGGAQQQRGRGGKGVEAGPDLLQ
Assay: GST pull-down from mouse whole brain detergent extract, Western blot with anti-SYNCRIP-N antibody

B1: GST alone (other)
chain: not shown
notes: Control protein in the pull-downs; also called purified GST; glutathione-S-transferase
- binding result: no binding (tested: 25 µg of purified GST alone)
